About 450 (0.94%) of roughly 48,000 compounds were called active. Roughly 19% stayed inconclusive and do not appear here. The call rests on the fitted dose curve; in most records, active means well fitted inhibition curve with a large enough effect; inconclusive means small, poorly fitted or top-dose-only effect; inactive means no such curve, though single readings can be large or run the other way. The list shows a part of the results.
experiment: Primary qHTS for Identification of Small Molecule Inhibitors of Huntingtin Promoter Activity; settings: HEK293 HTT promoter firefly luciferase reporter (activity 0% = vehicle and -100% = no light), 24 h; series mostly up to 57.5 µM; activity change, negative = inhibition: at the top concentration; further: nearly all actives have a fitted effect of over 50% in size
In short: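 Firefly luciferase signal from promoter-reporter HEK293 cells was scaled between vehicle (0%) and zero RLU (-100%). Compounds were tested at final concentrations of up to 57.5 uM over 24 h at 37 degrees C. PTC124 at 50 uM final served as control inhibitor.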

| Compound | activity change, negative = inhibition |
| --- | --- |
| Cc1ccc(C)c(N2CCN(C(=O)c3ccc(NC(=O)c4nsc5ccccc45)cc3)CC2)c1 | inactive: -24.5% |
| COc1cc(C(=O)Oc2c(Sc3ccccc3)c(C)nn2-c2ccccc2)cc(OC)c1OC | inactive: -25.5% |
| Cc1ccc(/C=C/c2onc(C)c2S(=O)(=O)N2CCC(C(=O)Nc3ccc(C)c(N(C)C)c3)CC2)cc1 | inactive: -21.1% |
| Cc1nn(-c2ccccc2)c(OC(=O)C(C)C)c1Sc1ccc(Cl)cc1 | inactive: -22.7% |
| Cc1ccc(CNC(=O)CCCCCn2c(=O)[nH]c3ccccc3c2=O)cc1 | inactive: -0.692% |
| CC1CCCN(CCCNC(=O)c2ccc3c(c2)N(Cc2ccccc2F)C(=O)c2ccccc2S3(=O)=O)C1 (centres undefined) | inactive: -14.7% |
| Cc1ccccc1-c1nc(CN2CCC(C(=O)NCc3ccccc3Cl)CC2)c(C)o1 | inactive: 5.95% |
| CCOc1ccc(N2CC(NC(=O)CCc3ccccc3)CC2=O)cc1 (centres undefined) | inactive: 5.28% |
| Cc1cc(C)c(NC(=O)Cn2c(=O)n(CC(=O)NCc3ccccc3Cl)c(=O)c3sccc32)c(C)c1 | inactive: 1.7% |
| COC(=O)c1ccc(NC(=O)CCS(=O)(=O)c2ccc(Br)cc2)cc1 | inactive: -19.3% |
| CC(=O)c1cc2c(cc1N/C(=N/S(=O)(=O)c1ccc(C)cc1)c1ccccc1)OCO2 | inactive: -22.4% |
| CCOC(=O)c1c(NC(=O)/C=C/c2ccc(OCC)cc2)sc(C)c1C | inactive: -8.52% |
| COC(=O)C(NC(=O)CC(C)C)(Nc1nc2c(s1)CCCC2)C(F)(F)F (centres undefined) | inactive: -17.2% |
| CCc1cnc2c(c1SCC(=O)N1CCCCC1)c(=O)n(C)c(=O)n2C | inactive: -10.3% |
| CCCCOc1ccc(C(=O)NCCS(=O)(=O)N2CCN(c3ccc(F)cc3)CC2)cc1 | inactive: -15.3% |
| CCOc1ccc(CNCc2c(C(=O)O)n(Cc3ccccc3F)c3cc(OC)ccc23)cc1 | inactive: -20.1% |
| COc1ccc(C(=O)NC2(C(F)(F)F)C(=O)NC(C)=C2C#N)cc1OC (centres undefined) | inactive: -2.27% |
| CCC(=O)N1CCc2cc(Br)cc(S(=O)(=O)N3CCC(C(=O)Nc4ccc(OC)cc4)CC3)c21 | inactive: -19.5% |
| O=C(CSc1nc2ccccc2nc1Cc1ccccc1)NCc1ccccc1Cl | inactive: 10.1% |
| CCc1ccc(NC(=O)c2ccc3c(O)c(S(=O)(=O)c4ccc(Cl)cc4)c(=O)[nH]c3c2)cc1 | inactive: 8.37% |
| Cc1cccc(OC(C)C(=O)Nc2ncn[nH]2)c1 (centres undefined) | inactive: -13.7% |
| CCCCN(CC)CCCNC(=O)c1sc2nc(C)cc(C)c2c1-n1cccc1 | inactive: -1.28% |
| COc1ccc(CN(C(=O)COc2ccccc2OC)C2CCS(=O)(=O)C2)cc1 (centres undefined) | inactive: -0.516% |
| Cc1ccc(C)c(NC(=O)CN2C(=O)CCc3ccccc32)c1 | inactive: -58.3% |
| CCN(CC)c1cc(C)c2cc(NC(=O)c3cccc(OC)c3)ccc2n1 | inactive: -11.5% |

| Compound | activity change, negative = inhibition |
| --- | --- |
| Cc1ccc(NC(=O)CN(C)S(=O)(=O)c2ccc3c(c2)n(C)c(=O)c(=O)n3C)cc1C | inactive: -16.8% |
| Cc1ccc(-c2nc3c4ccccc4n(CC(=O)N4CCN(c5ccccc5F)CC4)c(=O)n3n2)cc1 | inactive: 2.87% |
| Cc1ccccc1CNC(=O)c1cnc2sc(N3CCOCC3)nn2c1=O | inactive: 2.94% |
| Cc1ccc(-n2nnnc2CNC(=O)C(C)(C)C)cc1C | inactive: 5.9% |
| Cc1nc(SC(C)C(=O)Nc2ccccc2C)cc(-c2ccccc2)n1 (centres undefined) | inactive: -14.2% |
| Cc1ccccc1C(=O)c1cccn1CC(=O)NCc1ccccc1 | inactive: 18.6% |
| CCOc1ccc(CCNC(=O)Cn2nc(C)n3c(cc4occc43)c2=O)cc1OCC | inactive: -7.44% |
| CCn1c2ccccc2c2nnc(SCC(=O)O)nc21 | inactive: -4.11% |
| CCOC(=O)c1ccccc1O | inactive: -3.15% |
| COc1ccc(CNC(=O)CSc2nc(-c3ccc(OC)cc3)cc(C(F)(F)F)n2)cc1 | inactive: -10.5% |
| CC(C)Oc1ccc(CNC(=O)c2cc3ccccn3n2)cc1 | inactive: 25.9% |
| Cc1ccc(CCNC(=O)CCCn2nc(C)c3c(C)n(-c4ccccc4)nc3c2=O)cc1 | inactive: 11.8% |
| COc1cccc(-c2cc(C(=O)Nc3cc(Cl)ccc3O)on2)c1 | inactive: 31.9% |
| COc1cc(OC)c(NC(=O)C2CCCN(c3ncnc4c3nc3n4CCCCC3)C2)cc1Cl (centres undefined) | inactive: -17.9% [at 11.5 µM] |
| Cc1c(NC(=O)c2cccnc2)c(=O)n(-c2ccccc2)n1C | inactive: 6.3% |
| O=C(NCCc1ccccc1)c1cnc2sc(N3CCCC3)nn2c1=O | inactive: -26.3% |
| CCCc1nn2c(=O)cc(COC(=O)c3cccc(NC(=O)COc4ccccc4C)c3)nc2s1 | inactive: 23% |
| CC(=O)c1c(C)nc2nc(-c3ccccc3)nn2c1C | inactive: 39.3% |
| CCCCOc1ccc(C(=O)N2CCN(CCc3ccncc3)CC2)cc1 | inactive: 2.94% |
| COc1ccccc1N1CCN(C(=O)c2nn(-c3ccc(C)cc3)c(=O)n(C)c2=O)CC1 | inactive: -24.4% |
| CCOC(=O)c1ccc(Nc2c(-c3ccc(O)c(OC)c3)nc3nc[nH]n23)cc1 | inactive: -2.02% |
| Cc1cc(F)ccc1S(=O)(=O)NCC(c1ccco1)S(=O)(=O)c1cccs1 (centres undefined) | inactive: -16.5% |
| Cc1cc2nnc(SCC(=O)Nc3ccc(F)c(Cl)c3)n2c2ccccc12 | inactive: 8.66% |
| CCc1nn2c(=O)cc(COC(=O)c3cccc(NC(=O)c4ccccc4Cl)c3)nc2s1 | inactive: 3.63% |

From PubChem BioAssay AID1508623 (National Center for Advancing Translational Sciences (NCATS), 2021)
